# Assay results reported in article PMC9911399, “Two distinct binding modes provide the RNA-binding protein RbFox with extraordinary sequence specificity”.
# Residue numbers refer to the chain shown, from its start. The list shows a part of the results.
# B1: UCUGUAA (DNA:RNA)
# RNA: GGGAGACCGGAAUUCAGAUUGUCCUCUGUAAUUAAAUCCCGUCGUAGCCACCA
# DNA 1: CAATCTGAATTCCGGTCTCCC
# DNA 2: TGGTGGCTACGACGGGATT
# B2: AUGCUGG (DNA:RNA)
# RNA: B1 RNA with U25A, C26U, U27G, G28C, A30G, A31G
# DNA 1: CAATCTGAATTCCGGTCTCCC
# DNA 2: TGGTGGCTACGACGGGATT
# B3: AUACUGA (DNA:RNA)
# RNA: B1 RNA with U25A, C26U, U27A, G28C, A30G
# DNA 1: CAATCTGAATTCCGGTCTCCC
# DNA 2: TGGTGGCTACGACGGGATT
# B4: UAUGCUA (DNA:RNA)
# RNA: B1 RNA with C26A, U29C, A30U
# DNA 1: CAATCTGAATTCCGGTCTCCC
# DNA 2: TGGTGGCTACGACGGGATT
# B5: AAACGCU (DNA:RNA)
# RNA: GGGAGACCGGAAUUCAGAUUGUCCAAACGCUUUAAAUCCCGUCGUAGCCACCA
# DNA 1: CAATCTGAATTCCGGTCTCCC
# DNA 2: TGGTGGCTACGACGGGATT
# B6: GAACUUC (DNA:RNA)
# RNA: B5 RNA with A25G, G29U, C30U, U31C
# DNA 1: CAATCTGAATTCCGGTCTCCC
# DNA 2: TGGTGGCTACGACGGGATT
# B7: GAUUGUC (DNA:RNA)
# RNA: B5 RNA with A25G, A27U, C28U, C30U, U31C
# DNA 1: CAATCTGAATTCCGGTCTCCC
# DNA 2: TGGTGGCTACGACGGGATT
# B8: AACUUCU (DNA:RNA)
# RNA: B5 RNA with A27C, C28U, G29U
# DNA 1: CAATCTGAATTCCGGTCTCCC
# DNA 2: TGGTGGCTACGACGGGATT
# B9: CUUGUUG (DNA:RNA)
# RNA: B1 RNA with U25C, C26U, A30U, A31G
# DNA 1: CAATCTGAATTCCGGTCTCCC
# DNA 2: TGGTGGCTACGACGGGATT
# B10: CAGUCAG (DNA:RNA)
# RNA: B5 RNA with A25C, A27G, C28U, G29C, C30A, U31G
# DNA 1: CAATCTGAATTCCGGTCTCCC
# DNA 2: TGGTGGCTACGACGGGATT
# B11: UUUAGGG (DNA:RNA)
# RNA: B1 RNA with C26U, G28A, U29G, A30G, A31G
# DNA 1: CAATCTGAATTCCGGTCTCCC
# DNA 2: TGGTGGCTACGACGGGATT
# B12: ACGGCGU (DNA:RNA)
# RNA: B5 RNA with A26C, A27G, C28G, G29C, C30G
# DNA 1: CAATCTGAATTCCGGTCTCCC
# DNA 2: TGGTGGCTACGACGGGATT
# B13: AUGGCGG (DNA:RNA)
# RNA: B5 RNA with A26U, A27G, C28G, G29C, C30G, U31G
# DNA 1: CAATCTGAATTCCGGTCTCCC
# DNA 2: TGGTGGCTACGACGGGATT
# B14: CAGUAAA (DNA:RNA)
# RNA: B1 RNA with U25C, C26A, U27G, G28U, U29A
# DNA 1: CAATCTGAATTCCGGTCTCCC
# DNA 2: TGGTGGCTACGACGGGATT
# B15: UACCAUU (DNA:RNA)
# RNA: B5 RNA with A25U, A27C, G29A, C30U
# DNA 1: CAATCTGAATTCCGGTCTCCC
# DNA 2: TGGTGGCTACGACGGGATT
# B16: GCACGAC (DNA:RNA)
# RNA: B5 RNA with A25G, A26C, C30A, U31C
# DNA 1: CAATCTGAATTCCGGTCTCCC
# DNA 2: TGGTGGCTACGACGGGATT
# B17: GGAUCCU (DNA:RNA)
# RNA: B5 RNA with A25G, A26G, C28U, G29C
# DNA 1: CAATCTGAATTCCGGTCTCCC
# DNA 2: TGGTGGCTACGACGGGATT
# B18: GCAUUAU (DNA:RNA)
# RNA: B1 RNA with U25G, U27A, G28U, A31U
# DNA 1: CAATCTGAATTCCGGTCTCCC
# DNA 2: TGGTGGCTACGACGGGATT
# B19: AAGUUCG (DNA:RNA)
# RNA: B5 RNA with A27G, C28U, G29U, U31G
# DNA 1: CAATCTGAATTCCGGTCTCCC
# DNA 2: TGGTGGCTACGACGGGATT
# B20: GCGAGCG (DNA:RNA)
# RNA: B5 RNA with A25G, A26C, A27G, C28A, U31G
# DNA 1: CAATCTGAATTCCGGTCTCCC
# DNA 2: TGGTGGCTACGACGGGATT
# Target: T1, RBFOX1 RRM (Homo sapiens, UniProt Q9NWB1 109-208)
# T1 sequence: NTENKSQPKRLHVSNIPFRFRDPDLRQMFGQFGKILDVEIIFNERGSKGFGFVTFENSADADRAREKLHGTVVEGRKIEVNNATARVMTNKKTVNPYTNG
# Test: EMSA; HiTS-Eq, 1 nM pool, 10 min; buffer printed only for the single-RNA assays: 10 mM Tris pH 7.5, 150 mM NaCl, 3.4 mM EDTA, 0.001% NP-40, 30 C
# Conditions: tags: His6 N-terminal (pET28a); label: 5' 32P
# Method in brief: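 A pool of RNA with 7 randomized nucleotides, 5′-radiolabelled and with DNA-annealed flanks, was equilibrated at 1 nM for 10 min in 50 µL with purified RbFox RRM, wild type or mutant, across increasing protein concentrations. Free RNA was separated by 8% native PAGE, excised, reverse-transcribed, barcoded by PCR and sequenced. Relative association constants were obtained from read-count changes of each RNA species versus the control reaction and normalised to the cognate motif.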
row,Binder,binding signal
1,B1,0.00959 KA relative to UGCAUGU
2,B2,0.0176 KA relative to UGCAUGU
3,B3,0.00728 KA relative to UGCAUGU
4,B4,0.0112 KA relative to UGCAUGU
5,B5,0.00464 KA relative to UGCAUGU
6,B6,0.0117 KA relative to UGCAUGU
7,B7,0.0204 KA relative to UGCAUGU
8,B8,0.00236 KA relative to UGCAUGU
9,B9,0.0189 KA relative to UGCAUGU
10,B10,0.011 KA relative to UGCAUGU
11,B11,0.00239 KA relative to UGCAUGU
12,B12,0.0141 KA relative to UGCAUGU
13,B13,0.0185 KA relative to UGCAUGU
14,B14,0.000629 KA relative to UGCAUGU
15,B15,0.00289 KA relative to UGCAUGU
16,B16,0.0177 KA relative to UGCAUGU
17,B17,0.0186 KA relative to UGCAUGU
18,B18,0.00446 KA relative to UGCAUGU
19,B19,0.0121 KA relative to UGCAUGU
20,B20,0.017 KA relative to UGCAUGU
